Experimental findings from the BET-seq Pho4 binding data (Le et al. 2018) are described below.

This is one part of the list. Values were computed here from the reads of four pooled replicates and scatter widely.

The experiment has as its target T1, Pho4 (S. cerevisiae) (UniProt P07270).
T1 sequence: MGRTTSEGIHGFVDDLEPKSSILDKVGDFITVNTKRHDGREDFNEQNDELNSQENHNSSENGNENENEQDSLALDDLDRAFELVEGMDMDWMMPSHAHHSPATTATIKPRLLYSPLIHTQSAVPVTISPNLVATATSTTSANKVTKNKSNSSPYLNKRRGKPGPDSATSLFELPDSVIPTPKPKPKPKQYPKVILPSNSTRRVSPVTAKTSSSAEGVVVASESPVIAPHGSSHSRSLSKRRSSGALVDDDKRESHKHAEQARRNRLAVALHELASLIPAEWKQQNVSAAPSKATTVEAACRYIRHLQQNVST
Briefly: relative binding free energy (BET-seq); higher = weaker binding. The settings on record: reference: library average.
Take GAGGGCACGTGTTTTG: the “relative binding free energy” value was -0.03 kcal/mol. TTAAGCACGTGATTAG: the “relative binding free energy” value was -0.06 kcal/mol. The figure for TTGGTCACGTGAAATT is 0.44 kcal/mol; for TTTGACACGTGGATTT it is 0.13 kcal/mol; for TTGTGCACGTGCGTTC it is -0.26 kcal/mol. The same measure for AGTGCCACGTGTAATG: -0.01 kcal/mol; for TTGGGCACGTGCATCG: -0.18 kcal/mol. The same measure for ACTAGCACGTGGGGCG: -0.22 kcal/mol; for TTGACCACGTGGTGTG: -0.14 kcal/mol. With TAAATCACGTGATGTT, the “relative binding free energy” value turned out to be 0.23 kcal/mol.

With TAGTACACGTGAAGGG, the “relative binding free energy” value came to 0.33 kcal/mol. The same measure for GATAACACGTGGGTGA: -0.02 kcal/mol; for CAGGTCACGTGATGTA: 0.17 kcal/mol; for TATATCACGTGGGTCG: -0.01 kcal/mol. Regarding GTCTGCACGTGATTGT, the “relative binding free energy” value worked out at 0.14 kcal/mol.

For GTTTGCACGTGGAAGC, the “relative binding free energy” value was found to be 0.09 kcal/mol. Take TGTTGCACGTGCGCGA: the “relative binding free energy” value was -0.08 kcal/mol. Turning to AGATTCACGTGGTGCG, the “relative binding free energy” value was found to be 0.23 kcal/mol. The same measure for AGGTACACGTGGGGAT: 0.05 kcal/mol; for TTGGCCACGTGGGCGT: -0.15 kcal/mol; for CGTATCACGTGGGAGC: 0.17 kcal/mol. The same measure for TTTAGCACGTGCAGGT: 0.02 kcal/mol; for GTGGGCACGTGCGTCG: -0.07 kcal/mol. In the case of CTGTTCACGTGGATGT, the “relative binding free energy” value amounted to 0.22 kcal/mol.

For the sequence AGTGTCACGTGTTCTG, the “relative binding free energy” value was -0.02 kcal/mol. Consider GGGTTCACGTGTGCAT, for which the “relative binding free energy” value came to 0.33 kcal/mol. The figure for GGTGGCACGTGGACGC is -0.13 kcal/mol; for TGCGGCACGTGATCTG it is 0 kcal/mol; for AAGGTCACGTGTGTCA it is 0.05 kcal/mol. The same measure for TTGTCCACGTGGGAGC: 0.09 kcal/mol. As for TATTGCACGTGTTGTC, the “relative binding free energy” value was 0 kcal/mol. The figure for GGCGACACGTGTTGGG is 0.12 kcal/mol. The figure for GTAGTCACGTGGCTAT is 0.12 kcal/mol; for CTTACCACGTGGGGGG it is -0.28 kcal/mol.

Regarding AAGGTCACGTGAATGA, the “relative binding free energy” value was 0.37 kcal/mol. As for TTCTTCACGTGAAGGG, the “relative binding free energy” value stood at 0.45 kcal/mol. The same measure for CTATGCACGTGGGGCG: -0.29 kcal/mol; for ATTGTCACGTGGGTTG: -0.09 kcal/mol; for GTTTTCACGTGACTTT: 0.36 kcal/mol. For the sequence GGATGCACGTGGGAGC, the “relative binding free energy” value was -0.03 kcal/mol. Take AGTTTCACGTGCAGGT: the “relative binding free energy” value came to 0.15 kcal/mol.

For the sequence ATGTGCACGTGTCTTT, the “relative binding free energy” value was -0.01 kcal/mol. The same measure for GTACTCACGTGGTTGG: 0.29 kcal/mol; for TTTAACACGTGTGAAG: 0.13 kcal/mol; for TTGTACACGTGCTTGA: 0.04 kcal/mol.

Turning to TCTTTCACGTGGGTTG, the “relative binding free energy” value turned out to be 0.19 kcal/mol.

GTGGACACGTGTTTAG: the “relative binding free energy” value was 0.19 kcal/mol. The same measure for ATCTTCACGTGTTGTG: 0.15 kcal/mol; for ATCATCACGTGGTTTT: 0.03 kcal/mol. The figure for GCTGGCACGTGGGAGG is -0.16 kcal/mol; for GGTTGCACGTGGCTCT it is -0.06 kcal/mol. As to GTTGTCACGTGTGAAA, the “relative binding free energy” value was determined as 0.29 kcal/mol. On to TATAGCACGTGTTGGC, for which the “relative binding free energy” value is -0.02 kcal/mol.

On to GGAGTCACGTGGGGGT, for which the “relative binding free energy” value came to 0.1 kcal/mol. The figure for TTTTACACGTGCGGGA is 0.19 kcal/mol; for ATATGCACGTGCGTTA it is -0.21 kcal/mol; for CGATGCACGTGGGGGC it is -0.12 kcal/mol. In the case of TTGGTCACGTGGAGGG, the “relative binding free energy” value turned out to be 0.06 kcal/mol. The same measure for GTAGGCACGTGATGGA: 0.07 kcal/mol; for GTGAGCACGTGATAGA: 0.1 kcal/mol. The figure for ATTTGCACGTGAGATA is 0.22 kcal/mol. Turning to TATTACACGTGGTACT, the “relative binding free energy” value amounted to 0 kcal/mol. Regarding GGGCGCACGTGGGAGA, the “relative binding free energy” value is -0.13 kcal/mol. The same measure for GATTTCACGTGATATT: 0.39 kcal/mol; for TTGGTCACGTGTACAG: 0.05 kcal/mol; for TTAGCCACGTGGAGGT: -0.11 kcal/mol. As to CTTCTCACGTGTTTTT, the “relative binding free energy” value was 0.19 kcal/mol. Regarding ACGGGCACGTGGTTTT, the “relative binding free energy” value is -0.05 kcal/mol. The same measure for TTTTGCACGTGACATG: 0.03 kcal/mol; for TGAGTCACGTGATGCA: 0.16 kcal/mol.

Turning to TTTTTCACGTGGGACA, the “relative binding free energy” value turned out to be 0.09 kcal/mol. The same measure for AGTGTCACGTGTGATC: 0.03 kcal/mol; for GTTAGCACGTGGGCGG: -0.12 kcal/mol. The same measure for CCAGGCACGTGGTAGG: -0.1 kcal/mol; for AGTCGCACGTGAGCGG: 0.06 kcal/mol; for CGCAACACGTGAGGGT: 0.45 kcal/mol.

Consider AGTTACACGTGCGCGG, for which the “relative binding free energy” value stood at 0.04 kcal/mol. Take GTGTTCACGTGGGCCG: the “relative binding free energy” value stood at 0.26 kcal/mol. For the sequence CGAGTCACGTGGGATG, the “relative binding free energy” value amounted to 0.02 kcal/mol. The same measure for ATGGTCACGTGGGCGC: -0.01 kcal/mol; for CTTAGCACGTGGATGT: -0.15 kcal/mol; for CGTTACACGTGGGGAC: 0.13 kcal/mol. The same measure for GACTGCACGTGATTGG: 0.14 kcal/mol; for TTGAGCACGTGATAGA: -0.05 kcal/mol. On to CTTGGCACGTGAAGGA, for which the “relative binding free energy” value is 0.15 kcal/mol.

In the case of TTTGTCACGTGTTTAA, the “relative binding free energy” value was found to be 0.05 kcal/mol. Consider TAGCTCACGTGTAGGG, for which the “relative binding free energy” value amounted to 0.21 kcal/mol. Take TTCGTCACGTGTTACG: the “relative binding free energy” value came to 0.2 kcal/mol.

As for AGTGGCACGTGCATTT, the “relative binding free energy” value is -0.14 kcal/mol. The same measure for GGTATCACGTGATAAG: 0.22 kcal/mol; for AGGTGCACGTGTGACG: 0.11 kcal/mol. The figure for ATATACACGTGAGTAG is 0.18 kcal/mol. Turning to GTTTTCACGTGGATGA, the “relative binding free energy” value was 0.28 kcal/mol. The same measure for GAAAGCACGTGGGTAT: -0.11 kcal/mol.

With ATGGGCACGTGCGCTG, the “relative binding free energy” value is -0.25 kcal/mol.

Turning to TCGCTCACGTGGATGG, the “relative binding free energy” value amounted to 0.17 kcal/mol.

Regarding GGTTACACGTGGAATG, the “relative binding free energy” value was determined as 0.23 kcal/mol. The figure for CCTATCACGTGGTGTG is 0.06 kcal/mol; for GCGGGCACGTGTTTTA it is -0.06 kcal/mol.

For the sequence GGCGACACGTGGGTCT, the “relative binding free energy” value is -0.01 kcal/mol.

TGTAACACGTGTTGGG: the “relative binding free energy” value is -0.02 kcal/mol. The same measure for GTAAGCACGTGCTATG: -0.04 kcal/mol; for GATTGCACGTGTTAGA: 0.03 kcal/mol. The same measure for AGTATCACGTGCAGTG: 0 kcal/mol; for TGGCACACGTGGTGAT: -0.12 kcal/mol; for TGGAACACGTGAATGG: 0.23 kcal/mol. The same measure for ATGTTCACGTGACTTT: 0.26 kcal/mol.

ATATTCACGTGTAGGG: the “relative binding free energy” value is 0.29 kcal/mol. As for TGCTTCACGTGGCAGG, the “relative binding free energy” value was 0.16 kcal/mol. The figure for AGGGCCACGTGGCAGG is -0.24 kcal/mol; for TGAGTCACGTGGCGGT it is 0.03 kcal/mol. As for GGCCTCACGTGTTGGG, the “relative binding free energy” value turned out to be 0.21 kcal/mol.

For TATGTCACGTGAATGT, the “relative binding free energy” value was determined as 0.39 kcal/mol. The figure for TTATTCACGTGCTTTA is 0.13 kcal/mol; for TTTTTCACGTGGCAGT it is 0.35 kcal/mol.
